From patent US20260216242A1 (ALMAC DISCOVERY, published 2026)

Tests used:
Assay in all cases: cell-based or functional assay
[1] = target: T1, human ALPL (tissue non-specific alkaline phosphatase) expressed on the surface of CHO cells (human, UniProt P05186 18-501)
T1 sequence (looked up): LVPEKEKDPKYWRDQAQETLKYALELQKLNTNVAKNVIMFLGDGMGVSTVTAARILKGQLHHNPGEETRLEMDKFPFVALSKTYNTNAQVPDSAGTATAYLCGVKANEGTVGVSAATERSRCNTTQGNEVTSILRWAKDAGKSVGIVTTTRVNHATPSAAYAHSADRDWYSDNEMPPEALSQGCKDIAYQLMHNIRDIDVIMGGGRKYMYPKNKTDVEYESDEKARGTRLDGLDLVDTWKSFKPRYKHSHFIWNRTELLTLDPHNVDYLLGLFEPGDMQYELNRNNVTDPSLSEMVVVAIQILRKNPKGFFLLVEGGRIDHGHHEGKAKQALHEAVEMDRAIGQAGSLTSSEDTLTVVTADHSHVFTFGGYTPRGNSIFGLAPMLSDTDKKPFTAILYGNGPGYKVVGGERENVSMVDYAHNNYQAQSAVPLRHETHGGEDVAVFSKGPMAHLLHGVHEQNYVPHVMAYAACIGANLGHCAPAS

[2] = target: T2, human ALPI (intestinal alkaline phosphatase) expressed on the surface of CHO cells (human, UniProt P09923 20-503)
T2 sequence (looked up): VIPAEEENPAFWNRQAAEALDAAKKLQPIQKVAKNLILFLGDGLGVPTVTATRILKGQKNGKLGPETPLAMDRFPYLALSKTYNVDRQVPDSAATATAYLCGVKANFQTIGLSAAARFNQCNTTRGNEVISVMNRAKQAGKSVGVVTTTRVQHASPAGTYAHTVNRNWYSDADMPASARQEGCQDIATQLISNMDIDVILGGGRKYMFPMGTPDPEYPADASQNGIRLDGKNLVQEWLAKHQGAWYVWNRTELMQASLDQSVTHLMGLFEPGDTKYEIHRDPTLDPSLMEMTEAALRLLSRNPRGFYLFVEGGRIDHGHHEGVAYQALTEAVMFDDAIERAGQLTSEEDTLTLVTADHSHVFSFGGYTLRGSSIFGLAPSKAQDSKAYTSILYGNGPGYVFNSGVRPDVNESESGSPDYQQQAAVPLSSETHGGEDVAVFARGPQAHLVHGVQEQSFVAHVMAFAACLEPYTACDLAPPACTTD

[3] = target: human ALPPL2 (alkaline phosphatase, germ cell type) expressed on the surface of CHO cells (human, UniProt P10696 20-503)
[4] = target: human ALPP (alkaline phosphatase, placental type) expressed on the surface of CHO cells (human, UniProt P05187 23-506)
[5] = target: human ALPP (alkaline phosphatase, placental type) stably expressed on the surface of CHO cells (human, UniProt P05187 23-506)
[6] = target: human ALPPL2 (alkaline phosphatase, germ cell type) stably expressed on the surface of CHO cells (human, UniProt P10696 20-503)

| Binder | IC50 at 96 h, cell-killing of CHO-ALPL cells [1] [nM] | IC50 at 96 h, cell-killing of CHO-ALPI cells [2] [nM] | IC50 at 96 h, cell-killing of CHO-ALPPL2 cells [3] [nM] | IC50 at 96 h, cell-killing of CHO-ALPP cells [4] [nM] | IC50 @ 96 h (nM), cell-killing of CHO-ALPP cells (Cell Titre Glo) [5] [nM] | IC50 @ 96 h (nM), cell-killing of CHO-ALPPL2 cells (Cell Titre Glo) [6] [nM] |
| --- | --- | --- | --- | --- | --- | --- |
| D10 E06-hFc (S239C T366Y/Y407T), [G4S]1 linker, MA-PEG4-vc-PAB-EDA-PNU159682 conjugate, #884 (Fc fusion, DAR 2.03, MA-PEG4-vc-PAB-EDA-PNU159682 on Cys of S239C (EU numbering)) chain 1: QVQLVESGGGLVQPGGSLRLSCAASGSIFSVNTMGWYRQAPGKQRDLVAVATSGGTIHYADSVKGRFTISRDNAKNTVYLQMNSLKPEDTAVYYCNLVVPYGMIAGDHDYWGQGTKVTVSSGGGGS[human IgG1 Fc with C220S S239C T366Y (EU numbers) not spelt out] chain 2: QVHLVESGGGLVQAGGSLRLSCAASRRSFSEYAMGWFRQAPGKEREFVAAIGWSGVIEYADSVKGRFTISRDNAKDTVYLQMNSLKPEDTAVYYCAAGLGIRVVSQTPAYWGQGTQVTVSSGGGGS[human IgG1 Fc with C220S S239C Y407T (EU numbers) not spelt out] | 724 | 525 | 4.3 | 3.4 |  |  |
| D10 E10-hFc (S239C T366Y/Y407T), [G4S]1 linker, MA-PEG4-vc-PAB-EDA-PNU159682 conjugate, #885 (Fc fusion, DAR 2.02, MA-PEG4-vc-PAB-EDA-PNU159682 on Cys of S239C (EU numbering)) chain 1: QVQLVESGGGLVQPGGSLRLSCAASGSIFSVNTMGWYRQAPGKQRDLVAVATSGGTIHYADSVKGRFTISRDNAKNTVYLQMNSLKPEDTAVYYCNLVVPYGMIAGDHDYWGQGTKVTVSSGGGGS[human IgG1 Fc with C220S S239C T366Y (EU numbers) not spelt out] chain 2: QVQLVESGGGLVQAGGSLRLSCAVSGRALSDYNIGWFRQAPGKEREFVARKTWDGSSTRYDDSVKGRFTVSIEDAKNTAYLQMSSLKTEDTAVYYCAAGRYSRARGWEYDYWGQGTQVTVSSGGGGS[human IgG1 Fc with C220S S239C Y407T (EU numbers) not spelt out] | 800 | 579 | 3.2 | 4 |  |  |
| D10 F05-hFc (S239C T366Y/Y407T), [G4S]1 linker, MA-PEG4-vc-PAB-EDA-PNU159682 conjugate, #886 (Fc fusion, DAR 2.01, MA-PEG4-vc-PAB-EDA-PNU159682 on Cys of S239C (EU numbering)) chain 1: QVQLVESGGGLVQPGGSLRLSCAASGSIFSVNTMGWYRQAPGKQRDLVAVATSGGTIHYADSVKGRFTISRDNAKNTVYLQMNSLKPEDTAVYYCNLVVPYGMIAGDHDYWGQGTKVTVSSGGGGS[human IgG1 Fc with C220S S239C T366Y (EU numbers) not spelt out] chain 2: QVQLVESGGGLVQAGGSLRLSCAASGRAFGDYNIGWFRQAPGKEREFVARRTWDGSSTRYDDSVKGRFTVSIDNAKNTAYLQMNSLKTEDTAVYYCAAGRYSRVRGWEYDYWGQGTQVTVSSGGGGS[human IgG1 Fc with C220S S239C Y407T (EU numbers) not spelt out] | 831 | 552 | 2.7 | 3.5 |  |  |
| A06 E10-hFc (S239C F405L/K409R) conjugated to MC-vc-PAB-MMAE (Fc fusion, DAR 2, MC-vc-PAB-MMAE on Cys 239 (S239C, EU numbering)) chain 1: QVHLVESGGGLVQAGGSLRLSCAASGRTFLSMGWFRQAPGKEREFVAAISWTGGSTGYADSVKGRFTISRESDKETMYLQMNSLKPEDTAVYYCAARGDVYYGGDDATRYKYWGQGTQVTVSSGGGGSGGGGSGGGGS[human IgG1 Fc with changes not spelt out] chain 2: QVQLVESGGGLVQAGGSLRLSCAVSGRALSDYNIGWFRQAPGKEREFVARKTWDGSSTRYDDSVKGRFTVSIEDAKNTAYLQMSSLKTEDTAVYYCAAGRYSRARGWEYDYWGQGTQVTVSSGGGGSGGGGSGGGGS[human IgG1 Fc with changes not spelt out] |  |  |  |  | 18.8 | 34.9 |
| A06 E06-hFc (S239C F405L/K409R) conjugated to MC-vc-PAB-MMAE (Fc fusion, DAR 2, MC-vc-PAB-MMAE on Cys 239 (S239C, EU numbering)) chain 1: QVHLVESGGGLVQAGGSLRLSCAASGRTFLSMGWFRQAPGKEREFVAAISWTGGSTGYADSVKGRFTISRESDKETMYLQMNSLKPEDTAVYYCAARGDVYYGGDDATRYKYWGQGTQVTVSSGGGGSGGGGSGGGGS[human IgG1 Fc with changes not spelt out] chain 2: QVHLVESGGGLVQAGGSLRLSCAASRRSFSEYAMGWFRQAPGKEREFVAAIGWSGVIEYADSVKGRFTISRDNAKDTVYLQMNSLKPEDTAVYYCAAGLGIRVVSQTPAYWGQGTQVTVSSGGGGSGGGGSGGGGS[human IgG1 Fc with changes not spelt out] |  |  |  |  | 27.1 | 23.8 |
| D10 F05-hFc (S239C F405L/K409R) conjugated to MC-vc-PAB-MMAE (Fc fusion, DAR 2, MC-vc-PAB-MMAE on Cys 239 (S239C, EU numbering)) chain 1: QVQLVESGGGLVQPGGSLRLSCAASGSIFSVNTMGWYRQAPGKQRDLVAVATSGGTIHYADSVKGRFTISRDNAKNTVYLQMNSLKPEDTAVYYCNLVVPYGMIAGDHDYWGQGTKVTVSSGGGGSGGGGSGGGGS[human IgG1 Fc with changes not spelt out] chain 2: QVQLVESGGGLVQAGGSLRLSCAASGRAFGDYNIGWFRQAPGKEREFVARRTWDGSSTRYDDSVKGRFTVSIDNAKNTAYLQMNSLKTEDTAVYYCAAGRYSRVRGWEYDYWGQGTQVTVSSGGGGSGGGGSGGGGS[human IgG1 Fc with changes not spelt out] |  |  |  |  | 37.2 | 38.6 |
| A06 F05-hFc (S239C F405L/K409R) conjugated to MC-vc-PAB-MMAE (Fc fusion, DAR 2, MC-vc-PAB-MMAE on Cys 239 (S239C, EU numbering)) chain 1: QVHLVESGGGLVQAGGSLRLSCAASGRTFLSMGWFRQAPGKEREFVAAISWTGGSTGYADSVKGRFTISRESDKETMYLQMNSLKPEDTAVYYCAARGDVYYGGDDATRYKYWGQGTQVTVSSGGGGSGGGGSGGGGS[human IgG1 Fc with changes not spelt out] chain 2: QVQLVESGGGLVQAGGSLRLSCAASGRAFGDYNIGWFRQAPGKEREFVARRTWDGSSTRYDDSVKGRFTVSIDNAKNTAYLQMNSLKTEDTAVYYCAAGRYSRVRGWEYDYWGQGTQVTVSSGGGGSGGGGSGGGGS[human IgG1 Fc with changes not spelt out] |  |  |  |  | 36.4 | 45.5 |
| D10 E10-hFc (S239C F405L/K409R) conjugated to MC-vc-PAB-MMAE (Fc fusion, DAR 2, MC-vc-PAB-MMAE on Cys 239 (S239C, EU numbering)) chain 1: QVQLVESGGGLVQPGGSLRLSCAASGSIFSVNTMGWYRQAPGKQRDLVAVATSGGTIHYADSVKGRFTISRDNAKNTVYLQMNSLKPEDTAVYYCNLVVPYGMIAGDHDYWGQGTKVTVSSGGGGSGGGGSGGGGS[human IgG1 Fc with changes not spelt out] chain 2: QVQLVESGGGLVQAGGSLRLSCAVSGRALSDYNIGWFRQAPGKEREFVARKTWDGSSTRYDDSVKGRFTVSIEDAKNTAYLQMSSLKTEDTAVYYCAAGRYSRARGWEYDYWGQGTQVTVSSGGGGSGGGGSGGGGS[human IgG1 Fc with changes not spelt out] |  |  |  |  | 38.9 | 39.3 |
| D10 E06-hFc (S239C F405L/K409R) conjugated to MC-vc-PAB-MMAE (Fc fusion, DAR 2, MC-vc-PAB-MMAE on Cys 239 (S239C, EU numbering)) chain 1: QVQLVESGGGLVQPGGSLRLSCAASGSIFSVNTMGWYRQAPGKQRDLVAVATSGGTIHYADSVKGRFTISRDNAKNTVYLQMNSLKPEDTAVYYCNLVVPYGMIAGDHDYWGQGTKVTVSSGGGGSGGGGSGGGGS[human IgG1 Fc with changes not spelt out] chain 2: QVHLVESGGGLVQAGGSLRLSCAASRRSFSEYAMGWFRQAPGKEREFVAAIGWSGVIEYADSVKGRFTISRDNAKDTVYLQMNSLKPEDTAVYYCAAGLGIRVVSQTPAYWGQGTQVTVSSGGGGSGGGGSGGGGS[human IgG1 Fc with changes not spelt out] |  |  |  |  | 35 | 46.9 |
